Reference: paper PMC4336329 (PLoS ONE, 2015)
Out of some 310,000 compounds screened, about 14,000 (4.5%) showed an effect of 50% or more. The effect is printed as a negative number. The list shows a part of the results.

The compounds below were run against human ether-à-go-go-related gene (hERG) potassium channel (human, UniProt Q12809) (assay: primary screen, population patch clamp on CHO cells stably expressing hERG).
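Note: peak tail current of the secondary pulse compared with the same well before compound.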

human ether-à-go-go-related gene (hERG) potassium channel, sequence (Q12809 whole entry, looked up): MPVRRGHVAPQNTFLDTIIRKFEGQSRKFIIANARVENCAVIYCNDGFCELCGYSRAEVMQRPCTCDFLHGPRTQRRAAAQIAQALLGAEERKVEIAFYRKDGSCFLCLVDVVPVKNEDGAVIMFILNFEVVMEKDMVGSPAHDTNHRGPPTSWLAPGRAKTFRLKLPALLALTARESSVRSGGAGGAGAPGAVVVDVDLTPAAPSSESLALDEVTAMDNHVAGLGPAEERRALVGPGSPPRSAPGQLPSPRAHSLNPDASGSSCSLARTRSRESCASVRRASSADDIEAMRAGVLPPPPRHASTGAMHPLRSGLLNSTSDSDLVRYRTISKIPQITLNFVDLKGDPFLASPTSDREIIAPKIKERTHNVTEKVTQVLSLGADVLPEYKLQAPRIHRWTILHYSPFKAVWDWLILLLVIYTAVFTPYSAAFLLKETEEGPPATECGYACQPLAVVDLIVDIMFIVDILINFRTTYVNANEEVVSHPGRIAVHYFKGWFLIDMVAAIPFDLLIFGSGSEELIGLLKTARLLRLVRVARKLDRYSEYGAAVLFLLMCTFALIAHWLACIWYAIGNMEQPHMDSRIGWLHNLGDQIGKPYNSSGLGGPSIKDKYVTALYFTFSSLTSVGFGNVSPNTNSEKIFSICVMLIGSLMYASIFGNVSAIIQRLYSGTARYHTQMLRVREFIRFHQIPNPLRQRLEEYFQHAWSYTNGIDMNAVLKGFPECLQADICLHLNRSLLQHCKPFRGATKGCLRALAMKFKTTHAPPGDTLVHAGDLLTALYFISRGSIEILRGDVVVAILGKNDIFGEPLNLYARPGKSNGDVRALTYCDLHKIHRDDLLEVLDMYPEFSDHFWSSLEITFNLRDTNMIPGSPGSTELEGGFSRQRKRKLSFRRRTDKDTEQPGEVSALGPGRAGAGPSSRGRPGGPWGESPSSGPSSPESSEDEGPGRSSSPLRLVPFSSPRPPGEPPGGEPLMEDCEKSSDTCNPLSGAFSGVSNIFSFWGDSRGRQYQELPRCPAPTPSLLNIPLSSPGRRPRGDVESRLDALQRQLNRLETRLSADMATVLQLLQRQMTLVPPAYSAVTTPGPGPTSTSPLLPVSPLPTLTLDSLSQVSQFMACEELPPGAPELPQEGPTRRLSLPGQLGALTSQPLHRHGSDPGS

Row | Compound | hERG current change (%, negative = inhibition) at 10uM
1 | Oc1cccc2ccc(/C=C/c3ccccc3Cl)nc12 | 8.86%
2 | CCOc1ccc2oc(C(=O)NNC(=O)c3csc(N4CCOCC4)n3)c(C)c2c1 | -9.06%
3 | CNC(=S)NNC(=O)c1noc(C)c1C(=O)N1CCN(C(c2ccccc2)c2ccccc2)CC1 | 36.7%
4 | O=C(/C=C/c1cn(-c2ccccc2)nc1-c1ccc2c(c1)OCCO2)NCCO | -51.1%
5 | COc1ccc(-n2c(=O)[nH]c3ccccc3c2=O)c(OC)c1 | 2.33%
6 | O=C(COC(=O)C1COc2ccccc2O1)Nc1cccc(Cl)c1 (stereo not shown) | 5.82%
7 | CCc1ccc2c(CN(C)Cc3ccc(OC(F)F)c(OC)c3)cc(=O)oc2c1 | -72.5%
8 | COc1cccc(/C=N/N2CCN(Cc3ccccc3)CC2)c1O | 9.43%
9 | CN(CC(=O)Nc1ccccn1)S(=O)(=O)c1ccc(Cl)cc1 | -9.34%
10 | COC(=O)C1=C(c2cccc(OCc3ccccc3)c2)C[C@@H]2CC[C@H]1N2C(=O)NCc1ccccc1C(F)(F)F | 9.54%
11 | Cc1cc(N2C(=O)C(O)=C(C(=O)c3cccs3)C2c2cccc(Br)c2)no1 (stereo not shown) | 6.05%
12 | Cc1ccc(C(=O)NCC(=O)OCCOc2cccc(Cl)c2)cc1 | -7.72%
13 | CNC(=S)N1CCN(C(=O)c2ccco2)CC1 | 0.461%
14 | CCOc1c(C#N)c(C#N)c2nc(C)cc(C)n12 | -13.1%
15 | COc1ccc2nc(NC(=O)C3CCCN(S(=O)(=O)c4c(C)noc4C)C3)sc2c1 (stereo not shown) | 5.83%
16 | COc1ccc(OC)c(NC(=O)C2C(C(=O)O)C3(Cl)C(Cl)=C(Cl)C2(Cl)C3(Cl)Cl)c1 (stereo not shown) | 7.73%
17 | CCn1cc([N+](=O)[O-])c(C(=O)Nc2nc(-c3ccc(C)c(C)c3)c(C)s2)n1 | 4.16%
18 | Cn1nc(C(=O)N2CCN(c3ccc(Cl)cc3)CC2)c2c1-c1ccccc1S(=O)(=O)C2 | -51.2%
19 | C[C@@H](NC(=O)[C@@H]1Cc2ccccc2CN1)C(=O)NC1CCCC1 | 8.92%
20 | COc1cc(C(=O)N[C@H](C(=O)Nc2nnc(C3CC3)s2)C(C)C)cc(OC)c1OC | -10.1%
21 | Cc1ncccc1C(=O)N1CCCC(CNC(=O)c2ccc(-c3ccccc3)cc2)C1 (stereo not shown) | -15.5%
22 | Cc1ccccc1N | 14.8%
23 | CCOC(=O)c1c(C)[nH]c(C(=O)N(C)CC(=O)Nc2ccc(OC)cc2)c1C | -4.37%
24 | COC(=O)c1[nH]c2cc(OC)c(OC)cc2c1NC(=O)Oc1ccccc1 | 2.91%
25 | CC1C(=O)N2CCCc3cc(S(=O)(=O)Nc4ccccc4C(N)=O)cc1c32 (stereo not shown) | 0.107%
26 | O=C(COC(=O)/C=C/c1ccc(Cl)cc1Cl)Nc1cc(C(F)(F)F)ccc1N1CCOCC1 | 8.56%
27 | Cc1c(Cl)cccc1N(CC(=O)O)S(C)(=O)=O | 28.2%
28 | COc1ccccc1OCC(=O)NN=C(Cc1ccccc1)Cc1ccccc1 | -17.7%

Row | Compound | hERG current change (%, negative = inhibition) at 10uM
29 | COc1ccccc1C(CC(N)=O)c1ccco1 (stereo not shown) | 10.1%
30 | CC(C)CN1C(=O)c2ccc(NC(=O)c3ccccc3F)cc2C1=O | -8.67%
31 | CCOc1ccc(NC(=O)COC(=O)Cn2cnnn2)cc1OCC | 4.16%
32 | Cc1ccc(NC(=S)NCCc2ccc(F)cc2)c(C)c1 | -4.63%
33 | COc1ccc(CC(=O)NNS(=O)(=O)c2ccccc2[N+](=O)[O-])cc1OC | 10.9%
34 | CCc1nc2oc3cc(OC)ccc3c(=O)c2c(=O)n1Cc1ccccc1 | -11.6%
35 | COc1cccc(-c2ccc(SCC(=O)NC3CCCCC3)nn2)c1 | -37%
36 | CCC(C(=O)Nc1ccccc1-c1ccccc1)c1ccccc1 (stereo not shown) | -8.86%
37 | O=C1CN(C(=O)NCC(=O)N[C@H](Cc2ccccc2)C(=O)O)c2ccccc2N1 | 16.8%
38 | COc1ccc(/C=N/n2c(=O)[nH]c3c([nH]c4ccc(F)cc43)c2=O)cc1CN1CCCCC1 | -19.1%
39 | CN1C(C(=O)c2ccccc2)=C(N)c2ccccc2S1(=O)=O | 11.4%
40 | COc1cc(C(=O)Nc2ccccc2-c2nnn(CC(N)=O)n2)cc(OC)c1OC | 7.35%
41 | Cc1ccccc1NC(=O)COC(=O)CN1C(=O)NC(C)(C)C1=O | 0.057%
42 | CC(C)Oc1cccc(C(=O)NC(=S)Nc2ccc(Cl)c(C(=O)O)c2)c1 | 3.07%
43 | O=C(CSc1nnc(-c2cccnc2)n1Cc1ccco1)c1ccc(Br)cc1 | -63.8%
44 | CC(SCc1ccccc1)C(=O)Nc1ccc(F)cc1 (stereo not shown) | -2.13%
45 | CCN(C(=O)c1cc2cccc(OC)c2oc1=O)c1ccccc1 | 10.4%
46 | O=C(CCl)NCCN1C(=O)S/C(=C\c2cccnc2)C1=O | 26.1%
47 | NC(=O)c1ccc(/C=N/O)nc1 | 21.6%
48 | Nc1nc(Cl)nc(N(c2ccccc2)c2ccccc2)n1 | -2.83%
49 | Cc1ccc(C(=O)Nc2c(C(=O)N3CCOCC3)cnn2-c2ccccc2)cc1 | -3.23%
50 | CCOC(=O)c1cnc2c(-c3ccc(Cl)cc3)cnn2c1C | 13.8%
51 | CN(C(=O)CN1C(=O)c2cccc(N)c2C1=O)C1CCCCC1 | 12%
52 | O=C(Nc1ccccc1-c1nnc(SCc2ccccc2)o1)c1ccccc1 | 0.444%
53 | CSc1ccc(-c2nc3cnccn3c2Nc2ccc3c(c2)OCO3)cc1 | -10.6%
54 | COC(=O)c1cc(C(=O)Nn2cnnc2)cc([N+](=O)[O-])c1 | 16.3%
55 | CCCCn1c(N)c(N(CCOC)C(=O)c2ccc(N3CCCC3)c([N+](=O)[O-])c2)c(=O)[nH]c1=O | 7.67%
